{
  "source": "PubChem BioAssay AID1030",
  "about": "(National Center for Advancing Translational Sciences (NCATS), 2008)",
  "note": "Where “and” joins values, the source holds several entries; their conditions need not be identical. Identical values can stand only once. Among all 220,000 compounds or so, about 16,000 (7.3%) were called active. Inconclusive means that the source gave no clear call. Such entries were picked first, then a sample of the others. The call rests on the fitted dose curve; in most records, active means well fitted inhibition curve with a large enough effect (not every such curve was filed as active); inconclusive means small, poorly fitted or top-dose-only effect, or another doubt; inactive means no such curve, though single readings can be large or run the other way. Potencies beside an inconclusive call are fits to weak or partial responses and may not hold up. Potency means the concentration at half of the fitted maximal effect; tags describe the fitted curve by direction and shape.",
  "data": [
    {"target": "Aldehyde dehydrogenase 1A1 (Homo sapiens) (UniProt P00352)", "sequence (P00352 whole entry, looked up)": "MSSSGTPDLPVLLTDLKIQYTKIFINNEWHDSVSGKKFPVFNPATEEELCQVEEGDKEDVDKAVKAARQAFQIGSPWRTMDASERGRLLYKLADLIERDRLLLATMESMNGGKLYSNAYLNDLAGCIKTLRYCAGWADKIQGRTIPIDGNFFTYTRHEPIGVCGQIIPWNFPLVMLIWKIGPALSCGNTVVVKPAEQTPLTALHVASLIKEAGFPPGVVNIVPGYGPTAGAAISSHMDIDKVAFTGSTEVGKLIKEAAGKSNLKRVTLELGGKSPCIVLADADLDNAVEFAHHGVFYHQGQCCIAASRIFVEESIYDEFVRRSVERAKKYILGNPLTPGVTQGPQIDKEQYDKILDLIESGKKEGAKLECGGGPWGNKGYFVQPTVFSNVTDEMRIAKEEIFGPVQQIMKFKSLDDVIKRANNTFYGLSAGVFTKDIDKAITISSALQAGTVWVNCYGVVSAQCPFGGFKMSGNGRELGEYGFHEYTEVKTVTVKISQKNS", "experiment": "qHTS Assay for Inhibitors of Aldehyde Dehydrogenase 1 (ALDH1A1)", "conditions": "Purified ALDH1A1, NADH fluorescence, propionaldehyde substrate; series mostly up to 75.3 µM", "values": [
      {"smiles": "Cc1ccc(-c2ccc(/C=N/N3C(=O)C4C5C=CC(CC5)C4C3=O)o2)c([N+](=O)[O-])c1", "note": "(configuration not stated)", "Potency": "active: 0.891 µM"},
      {"smiles": "CCOC(=O)[C@]1(C(/C=C/c2ccco2)NC(=O)OC)CCCC1=O", "note": "(some centres not stated)", "Potency": "inconclusive: 3.55 µM [inhibitor, single point]"},
      {"smiles": "CCN1CCCC1CNC(=O)c1c(O)c2c([nH]c1=O)CCCC2", "note": "(configuration not stated)", "Potency": "inconclusive: 39.8 µM [inhibitor, single point]"},
      {"smiles": "Cc1c(=O)n(OCc2ccccn2)c2ccccc2[n+]1[O-]", "Potency": "inconclusive: 28.2 µM [inhibitor, partial curve]"},
      {"smiles": "C=CCNC(=O)COC(=O)c1ccc(Sc2nncn2C)c([N+](=O)[O-])c1", "Potency": "inactive"},
      {"smiles": "O=C(Nc1nnc(SCC(=O)N2CCCCC2)s1)C1CCCCC1", "Potency": "inconclusive: 28.2 µM [inhibitor, single point]"},
      {"smiles": "COc1ccc(C(=O)Nc2ccc(C3=NNC(=O)CC3C)cc2NC(=O)c2ccc(OC)cc2)cc1", "note": "(configuration not stated)", "Potency": "active: 2 µM"},
      {"smiles": "Cn1c(=O)[nH]c(=O)c2c1nc(N1CCCCCC1)n2CCCSc1nc2ccccc2o1", "Potency": "inconclusive: 25.1 µM [inhibitor, single point]"},
      {"smiles": "Cc1ccc(N2C(=O)C3C(C2=O)C(C(=O)c2ccc(Cl)cc2)N2CCCC32)cc1", "note": "(configuration not stated)", "Potency": "inconclusive: 39.8 µM [inhibitor, single point]"},
      {"smiles": "CCC(Sc1ccc2nnc(-c3ccc(OC)c(OC)c3)n2n1)C(=O)O", "note": "(configuration not stated)", "Potency": "inconclusive: 28.2 µM [inhibitor, single point]"},
      {"smiles": "Cc1c(CN2CCc3c([nH]c4ccccc34)C2CC(C)C)cnn1C", "note": "(configuration not stated)", "Potency": "inactive"},
      {"smiles": "Cc1cccc(C)c1N(CC(O)Cn1c2ccccc2c2ccccc21)S(C)(=O)=O", "note": "(configuration not stated)", "Potency": "inconclusive: 39.8 µM [inhibitor, single point]"},
      {"smiles": "O=C(NC1CCCCC1)N(CCN1CCOCC1)Cc1cc2cc3c(cc2[nH]c1=O)OCCO3", "Potency": "inconclusive: 31.6 µM [inhibitor, partial curve]"},
      {"smiles": "Cc1cc(C)c2c(=O)n(CC(=O)NCCCN3CCOCC3)sc2n1", "Potency": "inconclusive: 28.2 µM [inhibitor, partial curve]"},
      {"smiles": "Cn1c(CO)cnc1SCc1c(Cl)cccc1Cl", "Potency": "inactive"},
      {"smiles": "CCCOc1ccc(/C(O)=C2/C(=O)C(=O)N(CCN(C)C)C2c2ccco2)cc1", "note": "(configuration not stated)", "Potency": "inconclusive: 39.8 µM [inhibitor, single point]"},
      {"smiles": "O=C(NCc1cccs1)C(=O)NCC(c1ccco1)N1CCN(c2ccccc2)CC1", "note": "(configuration not stated)", "Potency": "inconclusive: 39.8 µM [inhibitor, single point]"},
      {"smiles": "O=C(CN1C(=O)NC2(CCCCC2)C1=O)NC1CCCc2ccccc21", "note": "(configuration not stated)", "Potency": "inactive"},
      {"smiles": "CCCOc1ccc(CC(CC(=O)O)(C(=O)O)C(=O)O)cc1", "Potency": "inconclusive: 39.8 µM [inhibitor, single point]"},
      {"smiles": "CCOC(=O)c1c(C2COc3ccccc3O2)csc1N", "note": "(configuration not stated)", "Potency": "inconclusive: 35.5 µM [inhibitor, single point]"},
      {"smiles": "O=C(Nc1ccncc1)C1COc2ccccc2O1", "note": "(configuration not stated)", "Potency": "inactive"},
      {"smiles": "O=C(NN=C1c2ccccc2-c2ccccc21)c1cccc(Br)c1", "Potency": "inactive"},
      {"smiles": "O=C(O)c1cc(O)c2c(c1)C(=O)c1cccc(O)c1C2=O", "Potency": "inconclusive: 39.8 µM [inhibitor, single point] and inconclusive: 28.2 µM [inhibitor, single point]"},
      {"smiles": "COc1ccccc1NC(=O)C(=O)N1CCCC1", "Potency": "inconclusive: 39.8 µM [inhibitor, single point]"},
      {"smiles": "CCn1c(C(C)C)n[nH]c1=S", "Potency": "inactive"},
      {"smiles": "CCN(CC)CCOC(=O)c1ccc(Cl)cc1Cl", "Potency": "inactive"},
      {"smiles": "Fc1ccc(-c2csc(-c3ccccn3)n2)cc1F", "Potency": "inconclusive: 25.1 µM [inhibitor, partial curve]"},
      {"smiles": "CCCCNC(=S)N(C)/N=C/c1c(F)cccc1F", "Potency": "inactive"},
      {"smiles": "C=CCn1cc(/C=N\\NC(=O)c2cc3c(ccc4ccccc43)o2)c2ccccc21", "Potency": "inconclusive: 39.8 µM [inhibitor, single point]"},
      {"smiles": "Cc1nnc(SCC(=O)Nc2ccc(N3CCOCC3)cc2)o1", "Potency": "inactive"},
      {"smiles": "O=C(OCc1ccccc1)c1ccc2c(c1)-c1ccccc1C2=O", "Potency": "inconclusive: 39.8 µM [inhibitor, single point]"},
      {"smiles": "Nc1ccccc1-n1cccc1", "Potency": "inactive"},
      {"smiles": "COC(=O)c1[nH]c2cccc(OC)c2c1NC(=O)CN1CC(C)OC(C)C1", "note": "(configuration not stated)", "Potency": "inconclusive: 39.8 µM [inhibitor, single point]"},
      {"smiles": "CC(O)/C=C/c1ccc2ccccc2n1", "note": "(configuration not stated)", "Potency": "inactive"},
      {"smiles": "c1cc2c(cnc3cscc32)s1", "Potency": "inconclusive: 39.8 µM [inhibitor, single point]"},
      {"smiles": "O=C(COC(=O)c1cccc(F)c1)Nc1cccnc1Cl", "Potency": "inactive"},
      {"smiles": "COc1ccccc1NC(=O)CN(Cc1ccco1)C(=O)c1ccc(-n2nc(C)cc2C)cc1", "Potency": "inconclusive: 35.5 µM [inhibitor, single point]"},
      {"smiles": "Cc1ccc(-n2cc(CNCCN3CCOC3=O)c(-c3cccc(C)c3)n2)cc1", "Potency": "active: 7.08 µM"},
      {"smiles": "CCCc1cc(C(=O)Nc2sc(C)c(CC)c2C#N)no1", "Potency": "active: 28.2 µM"},
      {"smiles": "COc1ccc(CN2CCN(CCCc3ccccc3)CC2)c(OC)c1", "Potency": "inconclusive: 25.1 µM [inhibitor, single point]"},
      {"smiles": "CCN1C(=O)c2cccc3c(S(=O)(=O)NCc4ccccn4)ccc1c23", "Potency": "inconclusive: 17.8 µM [inhibitor, partial curve]"},
      {"smiles": "CC(C)(C)c1ccc(C(=O)N2CCC(C(=O)NCCC3=CCCCC3)CC2)cc1", "Potency": "active: 10 µM"},
      {"smiles": "Cc1cccc(-n2c(N)c(C(=O)NCCN3CCOCC3)c3nc4ccccc4nc32)c1", "Potency": "inconclusive: 28.2 µM [inhibitor, partial curve]"},
      {"smiles": "CC(C)CCNC(=O)c1ccc2c(c1)ncn2C1CCCCC1", "Potency": "inactive"},
      {"smiles": "CC1CC(C)CN(C(=O)CSc2nc(Cc3cccs3)nc3ccccc23)C1", "note": "(configuration not stated)", "Potency": "inconclusive: 28.2 µM [inhibitor, single point]"},
      {"smiles": "Cc1ccc(S(=O)(=O)NCCCOC(=O)Nc2ccncc2)cc1", "Potency": "active: 15.8 µM"},
      {"smiles": "Cc1ccc(S(=O)(=O)Nc2c3ccccc3nc(=O)n2-c2ccccc2)cc1", "Potency": "inconclusive: 0.631 µM [inhibitor, full curve, poor fit]"},
      {"smiles": "CCN(CC)S(=O)(=O)c1ccc(OCC(=O)NC2CCS(=O)(=O)C2)c([N+](=O)[O-])c1", "note": "(configuration not stated)", "Potency": "active: 14.1 µM"},
      {"smiles": "Cc1ccc(-c2cc(C(=O)Nc3c(C#N)cnn3C)no2)cc1", "Potency": "inconclusive: 39.8 µM [inhibitor, single point]"},
      {"smiles": "N#CC(C#N)=C1C=CC=CN1/C(=C\\c1ccco1)C(=O)c1ccc(Br)cc1", "Potency": "inconclusive: 15.8 µM [inhibitor, partial curve]"},
      {"smiles": "Cc1ccc(/C=N/NC(=O)CSc2nc3ccccc3s2)o1", "Potency": "active: 11.2 µM"},
      {"smiles": "CCCNC(=O)c1nnsc1S(=O)c1ccc(Cl)cc1", "note": "(configuration not stated)", "Potency": "active: 11.2 µM"},
      {"smiles": "COc1ccc(-c2nnc3ccc(SCC(=O)Nc4nccs4)nn23)cc1OC", "Potency": "inconclusive: 35.5 µM [inhibitor, single point]"},
      {"smiles": "CCOC(=O)N1CCN(S(=O)(=O)c2ccc(C)c([N+](=O)[O-])c2)CC1", "Potency": "inactive"},
      {"smiles": "Cc1ccccc1N(C)S(=O)(=O)c1ccc2[nH]cc(C(=O)NCC3CCCO3)c(=O)c2c1", "note": "(configuration not stated)", "Potency": "inconclusive: 25.1 µM [inhibitor, partial curve]"},
      {"smiles": "CN(C)S(=O)(=O)c1ccc(NC(=O)Cn2c(-c3ccccc3)noc2=O)cc1", "Potency": "inconclusive: 35.5 µM [inhibitor, single point]"},
      {"smiles": "Cn1nccc1C(=O)NC(=S)Nc1sc2c(c1C#N)CCCCC2", "Potency": "inconclusive: 31.6 µM [inhibitor, partial curve]"},
      {"smiles": "Cc1ccc(S(=O)(=O)N2CCCN(S(=O)(=O)c3ccc(C)c(C)c3)CC2)cc1C", "Potency": "inconclusive: 28.2 µM [inhibitor, partial curve]"},
      {"smiles": "COc1ccc(OCC(O)CN2CCC(CN3C(=O)c4cccc5cccc(c45)C3=O)CC2)cc1", "note": "(configuration not stated)", "Potency": "inconclusive: 28.2 µM [inhibitor, single point]"},
      {"smiles": "N#C/C(=C\\c1cccc(Cl)c1)C(=O)c1ccccc1", "Potency": "active: 0.708 µM"},
      {"smiles": "COc1cc2cc(CN(CCCO)S(=O)(=O)c3ccccc3)c(=O)[nH]c2cc1OC", "Potency": "inconclusive: 31.6 µM [inhibitor, partial curve]"},
      {"smiles": "Cc1oc(-c2ccc(Cl)cc2)cc1C(=O)/C(C#N)=C/Nc1cccc(OC(F)(F)F)c1", "Potency": "inconclusive: 28.2 µM [inhibitor, single point]"},
      {"smiles": "Cc1cc(N)n2ncc(-c3ccc(Cl)cc3)c2n1", "Potency": "inconclusive: 39.8 µM [inhibitor, single point]"},
      {"smiles": "CCN(CC)C(=O)C1CCN(S(=O)(=O)c2ccc(-n3cnnn3)cc2)CC1", "Potency": "inconclusive: 39.8 µM [inhibitor, single point]"},
      {"smiles": "CN(Cc1cnccn1)Cc1cn(Cc2ccccc2)nc1-c1ccc2c(c1)OCO2", "Potency": "inconclusive: 39.8 µM [inhibitor, single point]"},
      {"smiles": "COC(=O)c1c(/N=C/N(C)C)sc2c1CCN(c1ncc(C(F)(F)F)cc1Cl)C2", "Potency": "inconclusive: 25.1 µM [inhibitor, partial curve]"},
      {"smiles": "COC(=O)N[C@H](C[N+](=O)[O-])c1cccc(C)c1", "Potency": "inactive"},
      {"smiles": "C=CCc1c(C)nc(-c2ccccc2)nc1Nc1ccccc1O", "Potency": "inactive"},
      {"smiles": "O=C(Cc1cnc2ncnn2c1)N1CCc2c([nH]c3ccccc23)C1c1ccccc1F", "note": "(configuration not stated)", "Potency": "active: 4.47 µM"},
      {"smiles": "CCOC(=O)c1ccccc1NC(=O)c1nc2nccc(C)n2n1", "Potency": "inconclusive: 25.1 µM [inhibitor, partial curve]"},
      {"smiles": "COc1ccc(CCn2c(-c3ccc(Cl)cc3)n[nH]c2=S)cc1OC", "Potency": "inconclusive: 23.8 µM [inhibitor, single point]"},
      {"smiles": "CCN(CC)c1nc(C)nc2c1sc(=S)n2C", "Potency": "inactive"}
    ]}
  ]
}
